# Data: PubChem BioAssay AID686978 (National Center for Advancing Translational Sciences (NCATS), 2013)
# Values joined by “and” are separate entries in the source; they are usually repeats but may differ in a detail not shown here. Identical values can stand only once. Hit rate of the full screen: of about 420,000 compounds, about 64,000 (15%) were called active. The shares of active, inactive and inconclusive entries below differ from those in the screen. The call rests on the fitted dose curve; in most records, active means well fitted inhibition curve with a large enough effect; inconclusive means small, poorly fitted or top-dose-only effect; inactive means flat fitted curve, though single readings scatter. Potencies of inconclusive entries are left out as doubtful fits.
# Experiment: qHTS for Inhibitors of human tyrosyl-DNA phosphodiesterase 1 (TDP1): qHTS in cells in absence of CPT; further: nearly all actives have a fitted effect of over 55% in size
# Conditions: DT40 Tdp1-/- hTDP1 cells, no CPT, ATP luminescence, 48 h; series mostly up to 46.2 µM
# Procedure, shortened: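 Luminescent ATP content (CellTiter-Glo) served as the growth readout. Knockout chicken DT40 cells expressing human TDP1 were exposed to compounds without camptothecin for a minimum 48 hr at 37 °C.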
# Potency means the concentration at half of the fitted maximal effect; tags describe the fitted curve by direction and shape.
row,SMILES,Potency
1,O=C(CSc1nnc(Nc2ccccc2)s1)NC1CC1,"inconclusive [inhibitor, partial curve]"
2,O=C(Nc1ccc(-c2nc3ccccc3o2)c(O)c1)c1cc(Cl)ccc1Cl,"inconclusive [inhibitor, single point]"
3,COCCNC(=O)Cn1nc(-c2ccccc2C)ccc1=O,inactive
4,CNC(=S)N/N=C/c1ccc(N2CCOCC2)s1,active: 3.26 µM
5,CCCCc1ccc(Nc2cc(C)nc(-n3nc(C)cc3C)n2)cc1,active: 5.17 µM
6,COc1ccc(/C=C(\NC(=O)c2ccccc2)C(=O)N2CCCCC2)cc1OC,inactive
7,Cc1ccc(C(=O)CSc2ncnc3sc4c(c23)CCCC4)cc1,active: 20.6 µM
8,Cc1ccccc1OCC(=O)Nc1ccc(NC(=O)c2ccco2)cc1,"inconclusive [inhibitor, single point]"
9,Cc1ccc(NC(=C(C#N)C#N)c2ccccc2)cc1,active: 11.6 µM
10,CSc1nnc2c(n1)c(C)nn2-c1cccc(C)c1,"inconclusive [inhibitor, partial curve]"
11,Oc1ccccc1/C=N/N1CCCCC1,"inconclusive [inhibitor, single point]"
12,COC(=O)C1=CN(c2ccc(N3CCOCC3)cc2)C(N)=C(C#N)C1c1cccc(OC)c1OC (configuration not stated),"inconclusive [inhibitor, single point]"
13,CCOc1ccc(-n2cc(-c3ccccc3)c3c(SC(C)C(=O)OC)ncnc32)cc1 (configuration not stated),"inconclusive [inhibitor, single point]"
14,O=C(CSc1nnc(CNC(=O)c2ccccc2F)o1)c1ccc(Cl)cc1,"inconclusive [inhibitor, single point]"
15,CC(C)CN=CC1=C(O)c2ccccc2C1=O,inactive
16,CCOC(=O)c1ccc(S(=O)(=O)N2CCC(N3CCCCC3)CC2)cc1,"inconclusive [inhibitor, single point]"
17,CCN(C(=O)CCS(=O)(=O)c1ccc2c(c1)CCN2C(C)=O)c1cccc(C(F)(F)F)c1,"inconclusive [inhibitor, full curve, poor fit]"
18,O=C(NCC(c1cccnc1)N1CCc2ccccc2C1)C(=O)Nc1ccccc1F (configuration not stated),active: 20.6 µM
19,Cc1occc1C(=O)N/N=C/c1ccccc1[N+](=O)[O-],inactive
20,CCCCN(C(=O)c1ccc(N(C)S(=O)(=O)c2ccc(C)cc2)cc1)c1c(N)n(CCC)c(=O)[nH]c1=O,"inconclusive [inhibitor, single point]"
21,O=C(c1cccc(Br)c1)N1CCN(C(=O)c2cccc(Br)c2)CC1,"inconclusive [inhibitor, single point]"

row,SMILES,Potency
1,CCOc1cc(C(=O)NCC(C)(C)CNC(=O)c2cc(OCC)c(OCC)c(OCC)c2)cc(OCC)c1OCC,"inconclusive [inhibitor, single point]"
2,CC(=O)O[C@]1(C(C)=O)CC[C@H]2[C@@H]3C=C(Cl)C4=CC(=O)[C@@H]5C[C@@H]5[C@]4(C)[C@H]3CC[C@@]21C,active: 14.6 µM and active: 20.6 µM
3,COc1ccc(Br)cc1[C@H]1[C@@H]2C=CCC[C@@]2(C)C(=O)N1Cc1ccccc1,"inconclusive [inhibitor, single point]"
4,CSc1ccc(CNC(=O)Cn2c(-c3cccs3)cc3cc(F)ccc32)cc1,"inconclusive [inhibitor, single point]"
5,O=C(/C=C\c1ccc2c(c1)OCO2)NC1CC(=O)N(c2ccccc2)C1 (configuration not stated),inactive
6,CC1Cc2cc(S(=O)(=O)CCC(=O)Nc3ccc(F)cc3)ccc2N1C(=O)C1CC1 (configuration not stated),"inconclusive [inhibitor, single point]"
7,COc1ccc(-c2csc(NC(=O)c3ccccc3F)n2)cc1,"inconclusive [inhibitor, single point]"
8,COc1ccc(OC)c(C2C(C(=O)c3ccccc3)=C(C)Nc3nc4ccccc4n32)c1 (configuration not stated),"inconclusive [inhibitor, partial curve]"
9,COc1ccc(-c2cnc(C(O)c3ccc(C(C)(C)C)cc3)[nH]2)cc1 (configuration not stated),"inconclusive [inhibitor, single point]"
10,COc1ccc(CN(C)CC(=O)Nc2cc3oc4ccccc4c3cc2OC)c(OC)c1,active: 10.3 µM
11,CC1CCN(c2ccc(/C=C(\C#N)c3nn(-c4ccccc4)c(N)c3C#N)cc2[N+](=O)[O-])CC1,active: 8.2 µM
12,O=C1N(Cc2cccc(Cl)c2)C[C@@H]2C[C@@H](c3ccc4nonc4c3)N3CCC[C@@]123,active: 18.4 µM
13,CCOC(=O)/C(C#N)=C/c1cc2cc(C)c(C)cc2nc1Cl,"inconclusive [inhibitor, single point]"
14,CCN1CCc2c(sc(NC(=O)c3ccc(S(=O)(=O)N(C)C4CCCCC4)cc3)c2C(N)=O)C1,"inconclusive [inhibitor, partial curve]"
15,O=C(/C=C/c1ccc(Cl)cc1Cl)NCc1ccncc1,"inconclusive [inhibitor, single point]"
16,Cc1cc(C)c(C)c(S(=O)(=O)N2CCC(C(=O)OCC(=O)N3c4ccccc4NC(=O)C3(C)C)CC2)c1C,"inconclusive [inhibitor, partial curve]"
17,COc1ccc(NC(=O)c2nn(C)c(=O)c3ccccc23)cc1S(=O)(=O)Nc1ccccc1Cl,"inconclusive [inhibitor, single point]"
18,O=C(c1cccc(S(=O)(=O)N2CCOCC2)c1)N(Cc1nnc(-c2ccccc2Cl)o1)C1CC1,"inconclusive [inhibitor, partial curve]"
19,Cc1cc(C)nc(NS(=O)(=O)c2ccc(N/C=C/C(=O)c3ccc(Cl)cc3)cc2)n1,inactive
20,NC(=O)COC(=O)c1ccc(S(=O)(=O)NCc2ccco2)cc1,inactive
21,CC(=O)Nc1ccc(Nc2nc(-c3sc(C)nc3C)cs2)cc1,"inconclusive [inhibitor, single point]"
